# Experimental data as given in PMC4336329 (PLoS ONE, 2015).
# The campaign covered roughly 310,000 compounds. About 2,200 (0.71%) showed an effect of 50% or more. The effect is printed as a negative number. The list shows a part of the results.
# Molecular target: human ether-à-go-go-related gene (hERG) potassium channel (human, UniProt Q12809)
# Test: primary screen, population patch clamp on CHO cells stably expressing hERG
# Chain of human ether-à-go-go-related gene (hERG) potassium channel (Q12809 whole entry, looked up): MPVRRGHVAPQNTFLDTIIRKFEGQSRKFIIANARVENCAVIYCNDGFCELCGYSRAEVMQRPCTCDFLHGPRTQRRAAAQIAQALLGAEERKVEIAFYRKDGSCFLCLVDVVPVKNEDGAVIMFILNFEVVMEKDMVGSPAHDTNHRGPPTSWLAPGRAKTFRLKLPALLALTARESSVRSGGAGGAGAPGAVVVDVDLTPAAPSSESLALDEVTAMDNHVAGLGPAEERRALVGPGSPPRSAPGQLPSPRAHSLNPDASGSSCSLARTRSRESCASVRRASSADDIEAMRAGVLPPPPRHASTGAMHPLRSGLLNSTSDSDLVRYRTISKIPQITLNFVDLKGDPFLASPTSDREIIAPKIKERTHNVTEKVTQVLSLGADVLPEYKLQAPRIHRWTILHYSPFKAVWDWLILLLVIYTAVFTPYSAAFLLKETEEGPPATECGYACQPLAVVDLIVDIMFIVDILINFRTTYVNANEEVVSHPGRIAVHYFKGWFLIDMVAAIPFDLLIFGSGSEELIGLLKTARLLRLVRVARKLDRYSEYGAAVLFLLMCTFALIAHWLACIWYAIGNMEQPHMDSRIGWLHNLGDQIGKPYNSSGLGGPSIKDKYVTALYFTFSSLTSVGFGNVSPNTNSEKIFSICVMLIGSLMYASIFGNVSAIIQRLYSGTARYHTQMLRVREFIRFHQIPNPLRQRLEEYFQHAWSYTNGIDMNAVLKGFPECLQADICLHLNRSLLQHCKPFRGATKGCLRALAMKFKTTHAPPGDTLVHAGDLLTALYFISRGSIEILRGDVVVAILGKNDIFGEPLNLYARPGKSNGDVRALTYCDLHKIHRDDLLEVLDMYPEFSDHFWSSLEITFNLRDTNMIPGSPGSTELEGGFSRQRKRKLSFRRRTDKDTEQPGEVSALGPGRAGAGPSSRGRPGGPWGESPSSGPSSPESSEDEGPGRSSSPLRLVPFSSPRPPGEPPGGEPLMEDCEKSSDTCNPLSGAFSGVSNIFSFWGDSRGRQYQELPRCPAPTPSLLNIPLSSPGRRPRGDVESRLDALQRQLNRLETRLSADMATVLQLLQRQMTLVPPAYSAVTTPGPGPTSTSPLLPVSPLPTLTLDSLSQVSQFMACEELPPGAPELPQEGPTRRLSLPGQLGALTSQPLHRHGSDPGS
row,Structure (SMILES),"hERG current change (%, negative = inhibition) at 1uM [%]"
1,OCCC1CN(CC2CCCCC2)CCN1CC1CCCCC1 (centres unmarked),-2.7
2,CC(NC(=O)CCc1nnc(-c2ccc(-c3ccccc3)cc2)o1)c1nc2ccccc2[nH]1 (centres unmarked),9.71
3,CC(=O)c1ccc(N(C(=O)CNC(=O)c2ccco2)C(C(=O)NC2CCCC2)c2ccncc2)cc1 (centres unmarked),15.1
4,COc1ccc(S(=O)(=O)N2CCc3ccccc32)cc1C(=O)N1CCOCC1,-1.34
5,O=C(CN1C(=O)c2ccccc2S1(=O)=O)c1ccc(Cl)cc1Cl,9.83
6,COc1ccc(C2CC(=O)N(C)c3ccccc3S2)cc1OC (centres unmarked),8.07
7,CCCCN(C(=O)c1ccc(NC2CC2)c([N+](=O)[O-])c1)c1c(N)n(CC(C)C)c(=O)[nH]c1=O,3.75
8,O=C(Cc1ccc(S(=O)(=O)N2CCOCC2)s1)N(Cc1ccccc1)c1ccccc1,12.4
9,CC(=O)Nc1ccc(OCc2nnc(-c3ccc(Cl)cc3)o2)cc1,13.4
10,COc1ccc(NC(=O)CN(c2ccccc2C)S(C)(=O)=O)c(OC)c1,7.08
11,CC(=O)Nc1ccc(OC(=O)N(C)C)cc1,-4.18
12,CCOc1ccc(CCNC(=O)COC(=O)/C=C/c2ccc(OC)c(OC)c2)cc1OCC,12.4
13,Cc1nc(-c2ccccc2)cs1,13.5
14,CCC(Sc1nc2ccccc2c(=O)[nH]1)C(=O)Nc1ccc(C(C)=O)cc1 (centres unmarked),5.81
15,c1ccc(Cc2nnc3sc(-c4ccc5c(c4)OCCO5)nn23)cc1,-1.39
16,CN(C)Cc1ccccc1C(O)(c1ccccc1)c1ccccc1,6.19
17,O=c1c2ccccc2sn1-c1ccc(S(=O)(=O)N2CCCC2)cc1,10.2
18,COc1cc(CN2CCCC(N3CCN(c4ccccc4C)CC3)C2)cc(Cl)c1O (centres unmarked),-1.13
19,CN1CCN(S(=O)(=O)c2ccc(Nc3ccc(F)cc3)nc2)CC1,1.34

row,Structure (SMILES),"hERG current change (%, negative = inhibition) at 1uM [%]"
1,O=C(COc1ncnc2scc(-c3ccc(F)cc3)c12)NCc1ccco1,11.3
2,Cc1ccc(-c2nc3ncccn3c2Nc2ccc3c(c2)OCCO3)o1,10.5
3,O=C1CCCc2ccccc2N1Cc1ccccc1Cl,6.51
4,COC(=O)c1ccc2c(=O)n(CCO)c(=S)[nH]c2c1,10.4
5,CCC1CCCCN1CCCNC(=O)CC1Oc2ccccc2NC1=O (centres unmarked),2.01
6,COc1ccccc1NC(=O)c1ccccc1SC,2.85
7,CCOc1ccc(S(=O)(=O)n2cc(-c3ccc(F)cc3)c(N)n2)cc1,15.1
8,CCN(CC)S(=O)(=O)c1ccc(NCc2ccccn2)nc1,-1.99
9,Cc1ccc(C(=O)NCC(=O)N(C)CC(=O)Nc2ccccc2Br)s1,7.63
10,COCCn1c(C)cc(C(=O)COc2cccnc2[N+](=O)[O-])c1C,6.84
11,CC1CN(C(=S)Nc2cccc(F)c2)CC(C)O1 (centres unmarked),14.6
12,CCc1ccc(NC2=NC(C(=O)NC3CCCCC3)CC(=O)N2)cc1 (centres unmarked),12.1
13,CCCCc1ccc(S(=O)(=O)Nc2cc(C)on2)cc1,5.25
14,CCOc1ccccc1-c1ccc(C(=O)NCc2ccccc2)o1,3.8
15,CCn1cnc2cc(NCc3ccc(Br)cc3)ccc21,2.64
16,CCCCn1c(O)c(C(C)=Nc2c(C)n(C)n(-c3ccccc3)c2=O)c(=O)[nH]c1=O,9.91
17,O=C(Nc1ccc2oc(=O)ccc2c1)c1cc2ccccc2o1,7.53
18,N#Cc1nc(-c2cccs2)oc1NCc1ccc(Cl)cc1,-11.5
19,O=C(O)CCC(=O)Nc1ccccc1C(=O)NCc1ccccc1,12.6

row,Structure (SMILES),"hERG current change (%, negative = inhibition) at 1uM [%]"
1,Cc1nc2ncnn2c(C)c1CCC(=O)NCCc1ccccc1,8.47
2,CCOC(=O)C1CCCN(Cc2cc(=O)oc3cc(C)c(C(C)C)cc23)C1 (centres unmarked),9.25
3,COc1ccc(NC(=O)c2ccccc2N(Cc2ccccc2)S(C)(=O)=O)cc1OC,12.6
4,COc1ccc(-c2cn(CCN)c(-c3ccncc3)n2)cc1,11.4
5,CCn1c(=O)c(CCC(=O)NCC2CCCO2)c(C)c2c(C)nn(-c3ccc(C)cc3)c21 (centres unmarked),19.9
6,COc1cc(OC)c(C(=O)OCC(=O)NCCC2=CCCCC2)cc1OC,7.02
7,Cc1cc(C)c(S(=O)(=O)c2ccccc2)c(OC(=O)c2cc(F)c(F)cc2Cl)n1,10.4
8,CS(=O)(=O)N(CC(=O)Nc1ccc2c(c1)OCCO2)Cc1ccc(Cl)cc1,0.692
9,O=C(CN(C(=O)CCC(=O)Nc1nccs1)c1ccc(F)c(Cl)c1)NCc1ccco1,4.35
10,COc1ccccc1NS(=O)(=O)c1ccc2c(c1)NC(=O)C(C)S2 (centres unmarked),11.4
11,C#Cc1ccc([C@H]2C=C(C(=O)NCc3nc4ccccc4[nH]3)O[C@@H](OCc3ccc(CO)cc3)C2)cc1,8.42
12,COc1ccc(CCC(=O)NCCOc2ccccc2Cl)cc1,10.8
13,COC(=O)c1coc(-c2ccc(OC)cc2)c1C(=O)OC,8.33
14,Cn1c(O)c(/C=N/NC(=O)c2cc3ccccc3cc2O)c2ccccc21,22.4
15,CCCn1c(N2CCN(Cc3cccc(C)c3)CC2)nc2c1c(=O)[nH]c(=O)n2C,-9.58
16,CC1=CC(C)(C)N(C(=O)CNC2CCCCC2)c2cc(C)ccc21.O=C(O)C(=O)O,11
17,CC1CCN(C(=O)Cn2cnc3c2c(=O)n(C)c(=O)n3C)c2ccccc2S1 (centres unmarked),1.42
18,CCc1nn(CCCC(=O)NCc2ccc(OC(C)C)cc2)c(=O)c2cc3occc3n12,6.99
